# Reference: the supplement of paper PMC6002552
# The list shows a part of the results. Repeats are few or missing, and single values can be far off.
# System: Bacillus subtilis 168 spores
# Test: spore germination/outgrowth inhibition class (0 mild or none, 1 inhibitory, 3 highly inhibitory, 4 no outgrowth, 5 no germination) (ordinal class code); higher = stronger inhibition of spore germination/outgrowth
# Settings: 100 µg/ml; pH 7.4; 8 h
# Protocol: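 Heat-activated Bacillus subtilis 168 spores (OD595 0.2) in TSB with AGFK germinants, buffered with 80 mM MOPS at pH 7.4, were exposed to 100 µg/ml compound (Pyxis Discovery library, catalogue IDs). OD595 was followed for 8 h at 37 °C in a plate reader. Each compound was assigned an ordinal inhibition class: 0 mild/no inhibition (reached 2x initial OD within 2-3 h), 1 inhibitory (3-6 h), 3 highly inhibitory (6-8 h), 4 no outgrowth within 8 h, 5 no germination (no OD decline).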
row,Structure (SMILES),spore germination/outgrowth inhibition class
1,COc1cc(N)ccc1-c1ccc(N)cc1OC,inactive: 0
2,O=C1C(=O)c2ccccc2-c2ccccc21,active: 3
